Measurements published in the supplement of paper PMC12423691.
The list shows a part of the results. Binding of human transcription factors and regulators to the viral nucleoprotein by AlphaScreen, crude cell-free proteins, amounts not normalised, one pass. Fold of the Venus control; higher = more signal. No active / inactive call. Single-pass screen; sequences are the whole Swiss-Prot entries looked up by name.

B1: ZKSCAN2, Q63HK3 (protein)
chain: MAVALDSQIDAPLEVEGCLIMKVEKDPEWASEPILEGSDSSETFRKCFRQFCYEDVTGPHEAFSKLWELCCRWLKPEMRSKEQILELLVIEQFLTILPEKIQAWAQKQCPQSGEEAVALVVHLEKETGRLRQQVSSPVHREKHSPLGAAWEVADFQPEQVETQPRAVSREEPGSLHSGHQEQLNRKRERRPLPKNARPSPWVPALADEWNTLDQEVTTTRLPAGSQEPVKDVHVARGFSYRKSVHQIPAQRDLYRDFRKENVGNVVSLGSAVSTSNKITRLEQRKEPWTLGLHSSNKRSILRSNYVKEKSVHAIQVPARSAGKTWREQQQWGLEDEKIAGVHWSYEETKTFLAILKESRFYETLQACPRNSQVYGAVAEWLRECGFLRTPEQCRTKFKSLQKSYRKVRNGHMLEPCAFFEDMDALLNPAARAPSTDKPKEMIPVPRLKRIAISAKEHISLVEEEEAAEDSDDDEIGIEFIRKSEIHGAPVLFQNLSGVHWGYEETKTFLDILRETRFYEALQACHRKSKLYGAVAEQLRECGFLRTPEQCRTKFKSLQKSYRKVKNGHVLESCAFYKEMDALINSRASAPSPSTPEEVPSPSRQERGGIEVEPQEPTGWEPEETSQEAVIEDSCSERMSEEEIVQEPEFQGPPGLLQSPNDFEIGSSIKEDPTQIVYKDMEQHRALIEKSKRVVSQSTDPSKYRKRECISGRQWENLQGIRQGKPMSQPRDLGKAVVHQRPFVGKRPYRLLKYGESFGRSTRLMCRMTHHKENPYKCGVCGKCFGRSRSLIRHQRIHTGEKPFKCLDCGKSFNDSSNFGAHQRIHTGEKPYRCGECGKCFSQSSSLIIHQRTHTGEKPYQCGECGKSFTNSSHFSAHRRVHTGENPYKCVDCEKSFNNCTRFREHRRIHTGEKPYGCAQCGKRFSKSSVLTKHREVHVREKPLPHPPSLYCPENPHKGKTDEFRKTF
B2: SALL4, Q9UJQ4 (protein)
chain: MSRRKQAKPQHINSEEDQGEQQPQQQTPEFADAAPAAPAAGELGAPVNHPGNDEVASEDEATVKRLRREETHVCEKCCAEFFSISEFLEHKKNCTKNPPVLIMNDSEGPVPSEDFSGAVLSHQPTSPGSKDCHRENGGSSEDMKEKPDAESVVYLKTETALPPTPQDISYLAKGKVANTNVTLQALRGTKVAVNQRSADALPAPVPGANSIPWVLEQILCLQQQQLQQIQLTEQIRIQVNMWASHALHSSGAGADTLKTLGSHMSQQVSAAVALLSQKAGSQGLSLDALKQAKLPHANIPSATSSLSPGLAPFTLKPDGTRVLPNVMSRLPSALLPQAPGSVLFQSPFSTVALDTSKKGKGKPPNISAVDVKPKDEAALYKHKCKYCSKVFGTDSSLQIHLRSHTGERPFVCSVCGHRFTTKGNLKVHFHRHPQVKANPQLFAEFQDKVAAGNGIPYALSVPDPIDEPSLSLDSKPVLVTTSVGLPQNLSSGTNPKDLTGGSLPGDLQPGPSPESEGGPTLPGVGPNYNSPRAGGFQGSGTPEPGSETLKLQQLVENIDKATTDPNECLICHRVLSCQSSLKMHYRTHTGERPFQCKICGRAFSTKGNLKTHLGVHRTNTSIKTQHSCPICQKKFTNAVMLQQHIRMHMGGQIPNTPLPENPCDFTGSEPMTVGENGSTGAICHDDVIESIDVEEVSSQEAPSSSSKVPTPLPSIHSASPTLGFAMMASLDAPGKVGPAPFNLQRQGSRENGSVESDGLTNDSSSLMGDQEYQSRSPDILETTSFQALSPANSQAESIKSKSPDAGSKAESSENSRTEMEGRSSLPSTFIRAPPTYVKVEVPGTFVGPSTLSPGMTPLLAAQPRRQAKQHGCTRCGKNFSSASALQIHERTHTGEKPFVCNICGRAFTTKGNLKVHYMTHGANNNSARRGRKLAIENTMALLGTDGKRVSEIFPKEILAPSVNVDPVVWNQYTSMLNGGLAVKTNEISVIQSGGVPTLPVSLGATSVVNNATVSKMDGSQSGISADVEKPSATDGVPKHQFPHFLEENKIAVS
B3: ZNF514, Q96K75 (protein)
chain: MTFEDVAVEFSQWEWGQLNPAQKDLYREVMLENFRNLAILGLLVSKPYVICQLEEGGEPFMVEREISTGAHSDWKRRSKSKESMPSWGISKEELFQVVSVEKHIQDVLQFSKLKAACGCDGQLEMQQIKQERHLKQMSTIHKSATTLSRDYKWNGFGRSLGLRSVLVNQHSILMGEGSYKCDTEFRQTLGGNNSQRTHPEKKSCKCNECGKSFHFQSELRRHQRCHTGEKPYECSDCGRAFGHISSLIKHQRTHTGEKPYECSECGRAFSQSSSLVLHYRFHTGEKPYKCNECGRAFGHTSSLIKHQRTHTGEKPYECRECGRTFSQSSSLIVHYRFHTGEKPYKCNKCGRAFSQSSSLTQHYRFHTGEKPYKCNECGRAFAHTASLIKHQRSHAGKKTL
B4: PBX1, P40424 (protein)
chain: MDEQPRLMHSHAGVGMAGHPGLSQHLQDGAGGTEGEGGRKQDIGDILQQIMTITDQSLDEAQARKHALNCHRMKPALFNVLCEIKEKTVLSIRGAQEEEPTDPQLMRLDNMLLAEGVAGPEKGGGSAAAAAAAAASGGAGSDNSVEHSDYRAKLSQIRQIYHTELEKYEQACNEFTTHVMNLLREQSRTRPISPKEIERMVSIIHRKFSSIQMQLKQSTCEAVMILRSRFLDARRKRRNFNKQATEILNEYFYSHLSNPYPSEEAKEELAKKCGITVSQVSNWFGNKRIRYKKNIGKFQEEANIYAAKTAVTATNVSAHGSQANSPSTPNSAGSSSSFNMSNSGDLFMSVQSLNGDSYQGAQVGANVQSQVDTLRHVISQTGGYSDGLAASQMYSPQGISANGGWQDATTPSSVTSPTEGPGSVHSDTSN
B5: PBX3, P40426 (protein)
chain: MDDQSRMLQTLAGVNLAGHSVQGGMALPPPPHGHEGADGDGRKQDIGDILHQIMTITDQSLDEAQAKKHALNCHRMKPALFSVLCEIKEKTGLSIRGAQEEDPPDPQLMRLDNMLLAEGVSGPEKGGGSAAAAAAAAASGGSSDNSIEHSDYRAKLTQIRQIYHTELEKYEQACNEFTTHVMNLLREQSRTRPISPKEIERMVGIIHRKFSSIQMQLKQSTCEAVMILRSRFLDARRKRRNFSKQATEILNEYFYSHLSNPYPSEEAKEELAKKCSITVSQVSNWFGNKRIRYKKNIGKFQEEANLYAAKTAVTAAHAVAAAVQNNQTNSPTTPNSGSSGSFNLPNSGDMFMNMQSLNGDSYQGSQVGANVQSQVDTLRHVINQTGGYSDGLGGNSLYSPHNLNANGGWQDATTPSSVTSPTEGPGSVHSDTSN
B6: PLAG1, Q6DJT9 (protein)
chain: MATVIPGDLSEVRDTQKVPSGKRKRGETKPRKNFPCQLCDKAFNSVEKLKVHSYSHTGERPYKCIQQDCTKAFVSKYKLQRHMATHSPEKTHKCNYCEKMFHRKDHLKNHLHTHDPNKETFKCEECGKNYNTKLGFKRHLALHAATSGDLTCKVCLQTFESTGVLLEHLKSHAGKSSGGVKEKKHQCEHCDRRFYTRKDVRRHMVVHTGRKDFLCQYCAQRFGRKDHLTRHMKKSHNQELLKVKTEPVDFLDPFTCNVSVPIKDELLPVMSLPSSELLSKPFTNTLQLNLYNTPFQSMQSSGSAHQMITTLPLGMTCPIDMDTVHPSHHLSFKYPFSSTSYAISIPEKEQPLKGEIESYLMELQGGVPSSSQDSQASSSSKLGLDPQIGSLDDGAGDLSLSKSSISISDPLNTPALDFSQLFNFIPLNGPPYNPLSVGSLGMSYSQEEAHSSVSQLPPQTQDLQDPANTIGLGSLHSLSAAFTSSLSTSTTLPRFHQAFQ
B7: NFE2L2, Q16236 (protein)
chain: MMDLELPPPGLPSQQDMDLIDILWRQDIDLGVSREVFDFSQRRKEYELEKQKKLEKERQEQLQKEQEKAFFAQLQLDEETGEFLPIQPAQHIQSETSGSANYSQVAHIPKSDALYFDDCMQLLAQTFPFVDDNEVSSATFQSLVPDIPGHIESPVFIATNQAQSPETSVAQVAPVDLDGMQQDIEQVWEELLSIPELQCLNIENDKLVETTMVPSPEAKLTEVDNYHFYSSIPSMEKEVGNCSPHFLNAFEDSFSSILSTEDPNQLTVNSLNSDATVNTDFGDEFYSAFIAEPSISNSMPSPATLSHSLSELLNGPIDVSDLSLCKAFNQNHPESTAEFNDSDSGISLNTSPSVASPEHSVESSSYGDTLLGLSDSEVEELDSAPGSVKQNGPKTPVHSSGDMVQPLSPSQGQSTHVHDAQCENTPEKELPVSPGHRKTPFTKDKHSSRLEAHLTRDELRAKALHIPFPVEKIINLPVVDFNEMMSKEQFNEAQLALIRDIRRRGKNKVAAQNCRKRKLENIVELEQDLDHLKDEKEKLLKEKGENDKSLHLLKKQLSTLYLEVFSMLRDEDGKPYSPSEYSLQQTRDGNVFLVPKSKKPDVKKN
B8: EN1, Q05925 (protein)
chain: MEEQQPEPKSQRDSALGAAAAATPGGLSLSLSPGASGSSGSGSDGDSVPVSPQPAPPSPPAAPCLPPLAHHPHLPPHPPPPPPQHLAAPAHQPQPAAQLHRTTNFFIDNILRPDFGCKKEQPPPQLLVAAAARGGAGGGGRVERDRGQTAAGRDPVHPLGTRAPGAASLLCAPDANCGPPDGSQPAAAGAGASKAGNPAAAAAAAAAAVAAAAAAAAAKPSDTGGGGSGGGAGSPGAQGTKYPEHGNPAILLMGSANGGPVVKTDSQQPLVWPAWVYCTRYSDRPSSGPRTRKLKKKKNEKEDKRPRTAFTAEQLQRLKAEFQANRYITEQRRQTLAQELSLNESQIKIWFQNKRAKIKKATGIKNGLALHLMAQGLYNHSTTTVQDKDESE

Target: nucleoprotein N of Crimean-Congo hemorrhagic fever virus
Assay: AlphaScreen luminescence signal relative to Venus negative control (fold); higher = stronger binding to CCHFV N
Description: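 AlphaScreen binding of cell-free made, FLAG-GST-tagged human transcription factors and regulators (crude translation products) to biotinylated N protein; signal as fold of the FLAG-GST-Venus control. One pass.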

With B1 as the binder, how does the AlphaScreen luminescence signal read?
The AlphaScreen luminescence signal was 1.53.

With B2 as the binder, how does the AlphaScreen luminescence signal read?
The AlphaScreen luminescence signal was 2.14.

With B3 as the binder, how does the AlphaScreen luminescence signal read?
Its AlphaScreen luminescence signal is 3.35.

With B4 as the binder, how does the AlphaScreen luminescence signal read?
The AlphaScreen luminescence signal was 2.14.

For B5, which AlphaScreen luminescence signal is on record?
Its AlphaScreen luminescence signal is 2.05.

B6 was tested. Which AlphaScreen luminescence signal did it give?
Its AlphaScreen luminescence signal is 3.44.

B7 was tested. Which AlphaScreen luminescence signal did it give?
Its AlphaScreen luminescence signal is 1.44.

With B8 as the binder, how does the AlphaScreen luminescence signal read?
The AlphaScreen luminescence signal was 5.16.
